# Source: the supplement of paper PMC9446081
# About 220 (0.56%) of roughly 39,000 compounds showed activity. The list shows a part of the results.
# Tested on: Escherichia coli K-12 BW25113
# Assay: relative growth (OD600 normalised to plate interquartile mean) (fraction); higher = less growth inhibition, active = 0.2 or less
# Details: 50 µM; LB; incubation time: overnight (16-24 h)
# 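Further: static incubation at 37 °C against the wild-type strain, values averaged over two biological replicates.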
row,SMILES,relative growth
1,Cc1noc(C)c1NC(=O)N(C)C[C@@H]1Oc2ncc(C#CCN(C)C)cc2C(=O)N([C@@H](C)CO)C[C@H]1C,inactive: 0.987
2,COc1ccc(NC(=O)N(C)C[C@H]2Oc3ccc(NC(=O)CCN4CCOCC4)cc3C(=O)N([C@H](C)CO)C[C@H]2C)cc1,inactive: 1.03
3,CC(=O)NCCCC[C@@H]1NC(=O)[C@H]2C[C@@H](C(=O)NCc3ccc(F)cc3)[C@@H](c3ccc(O)cc3)N2C1=O,inactive: 1
4,COc1ccc(NC(=O)N(C)C[C@@H]2Oc3ccc(NC(=O)Nc4ccc(C(F)(F)F)cc4)cc3C(=O)N([C@@H](C)CO)C[C@@H]2C)cc1,inactive: 1.02
5,COC(=O)c1c(CC[C@@H](CO)NC(=O)N2CCC[C@H]2Cn2cc(C3(O)CCCCC3)nn2)oc(C(C)=O)c1C(=O)OC,inactive: 0.976
6,C[C@@H]1CCCCO[C@H](CN(C)CC2CCCCC2)[C@H](C)CN([C@H](C)CO)C(=O)c2cc(NC(=O)Cc3ccccc3)ccc2O1,inactive: 0.999
7,C[C@@H]1CCCCO[C@@H](CN(C)C(=O)Cc2ccccc2)[C@@H](C)CN([C@H](C)CO)C(=O)c2cc(NS(=O)(=O)c3ccc(Cl)cc3)ccc2O1,inactive: 0.989
8,C[C@@H]1CN([C@H](C)CO)C(=O)c2cc(NS(=O)(=O)c3cn(C)cn3)ccc2O[C@@H](C)CCCCO[C@H]1CN(C)S(=O)(=O)c1cccs1,inactive: 0.993
9,Cc1noc(C)c1NC(=O)Nc1ccc2c(c1)C(=O)N([C@H](C)CO)C[C@@H](C)[C@H](CN(C)Cc1ccc(C(F)(F)F)cc1)OCCCC[C@@H](C)O2,inactive: 0.967
10,C[C@H](CO)N1C[C@H](C)[C@@H](CN(C)Cc2ccc(C(=O)O)cc2)Oc2ncc(C#CCN(C)C)cc2C1=O,inactive: 1
11,C[C@@H]1CN([C@H](C)CO)C(=O)c2cc(NC(=O)C3CCCCC3)ccc2O[C@@H](C)CCCCO[C@H]1CN(C)C(=O)c1ccccc1,inactive: 1.01
12,C[C@@H]1CCCCO[C@H](CN(C)S(=O)(=O)c2cccs2)[C@H](C)CN([C@H](C)CO)C(=O)c2cc(NC(=O)CCC(F)(F)F)ccc2O1,inactive: 0.999
13,O=C(C[C@@H]1CC[C@H]2[C@@H](COC[C@H](O)CN2S(=O)(=O)c2ccc(Cl)cc2)O1)NCCN1CCCCC1,inactive: 1.05
14,O=C(CN1CCOCC1)NCC[C@H]1CC[C@@H](NS(=O)(=O)c2ccc(Cl)cc2)[C@H](CO)O1,inactive: 1.02
15,C[C@H]1CN([C@@H](C)CO)C(=O)c2cccc(NS(=O)(=O)c3cn(C)cn3)c2O[C@H]1CN(C)Cc1ccc(C(=O)Nc2ccccc2N)cc1,inactive: 0.989
16,Cc1noc(C)c1S(=O)(=O)Nc1cccc2c1O[C@@H](CN(C)S(=O)(=O)c1cccs1)[C@@H](C)CN([C@H](C)CO)C2=O,inactive: 1
17,COc1ccc(S(=O)(=O)N(C)C[C@@H]2Oc3ccc(NC(=O)CCC(F)(F)F)cc3CC(=O)N([C@H](C)CO)C[C@@H]2C)cc1,inactive: 1.02
18,C[C@@H]1CCCCO[C@@H](CN(C)C(=O)c2ccccc2)[C@H](C)CN([C@@H](C)CO)C(=O)c2cc(NS(=O)(=O)c3ccccc3)ccc2O1,inactive: 1.03
19,C[C@H]1CN([C@@H](C)CO)C(=O)c2cc(NC(=O)Cc3ccccc3)ccc2O[C@@H]1CN(C)Cc1ccc(Cl)c(Cl)c1,inactive: 1.03
20,C[C@@H]1CCCCO[C@H](CN(C)CC2CC2)[C@H](C)CN([C@@H](C)CO)C(=O)c2cc(NC(=O)Cc3ccccc3)ccc2O1,inactive: 1.02
21,COc1ccc(S(=O)(=O)Nc2ccc3c(c2)C(=O)N([C@H](C)CO)C[C@@H](C)[C@H](CN(C)Cc2ccccc2)OCCCC[C@@H](C)O3)cc1,inactive: 1.01
22,COCC(=O)Nc1ccc2c(c1)C(=O)N(C)C[C@H](OC)[C@@H](C)CN(Cc1ccccc1F)[C@@H](C)CO2,inactive: 1
23,C[C@@H]1CCCCO[C@H](CN(C)C(=O)C2CCCCC2)[C@@H](C)CN([C@@H](C)CO)C(=O)c2cc(NC(=O)NC3CCCCC3)ccc2O1,inactive: 1.02
24,C[C@H](CO)N1C[C@H](C)[C@@H](CN(C)C(=O)Nc2ccc(C(F)(F)F)cc2)OCCCC[C@H](C)Oc2ccc(NC(=O)Nc3ccc(F)cc3)cc2C1=O,inactive: 1.03
25,C[C@@H]1CCCCO[C@@H](CN(C)Cc2ccc(C(F)(F)F)cc2)[C@@H](C)CN([C@@H](C)CO)C(=O)c2cc(NC(=O)CCCN(C)C)ccc2O1,inactive: 0.952
26,C[C@@H]1CCCCO[C@@H](CN(C)C(=O)Nc2ccc3c(c2)OCO3)[C@@H](C)CN([C@@H](C)CO)C(=O)c2cc(NC(=O)c3ccccc3)ccc2O1,inactive: 1.01

row,SMILES,relative growth
1,C[C@H](CO)N1C[C@H](C)[C@H](CN(C)S(C)(=O)=O)Oc2c(NC(=O)c3ccc(-c4nccs4)cc3)cccc2C1=O,inactive: 0.995
2,C[C@H]1CCCCO[C@H](CN(C)Cc2ccc(Cl)c(Cl)c2)[C@@H](C)CN([C@@H](C)CO)C(=O)c2cc(NS(=O)(=O)c3ccccc3)ccc2O1,inactive: 1
3,C(=N\c1ccc2ccccc2c1)/Nc1ccc2ccccc2c1,inactive: 1
4,COC(=O)C[C@@H]1CC[C@H]2[C@@H](COC[C@@H](O)CN2S(=O)(=O)c2ccccc2C)O1,inactive: 0.97
5,CCCCC(CC)COC(=O)c1ccccc1O (configuration not stated),inactive: 0.851
6,C[C@H]1CN([C@@H](C)CO)C(=O)c2cccc(NC(=O)C3CC3)c2O[C@H]1CN(C)S(=O)(=O)c1ccc(F)cc1,inactive: 0.985
7,COc1ccc(C#Cc2cnc3c(c2)C(=O)N([C@H](C)CO)C[C@H](C)[C@H](CN(C)C(=O)Nc2cccc4ccccc24)O3)cc1OC,inactive: 1.01
8,C[C@@H]1CN([C@H](C)CO)C(=O)c2cccc(NC(=O)c3ccncc3)c2O[C@H]1CN(C)S(=O)(=O)c1cn(C)cn1,inactive: 1.02
9,CC(=O)O[C@H]1CC(C)(C)C[C@H]2[C@]13CO[C@@]21CC[C@H]2[C@@]4(C)CC[C@H](O[C@@H]5OC[C@H](O[C@@H]6O[C@H](CO)[C@@H](O)[C@H](O)[C@H]6O[C@@H]6OC[C@@H](O[C@@H]7O[C@H](CO)[C@@H](O)[C@H](O)[C@H]7O)[C@H](O)[C@H]6O)[C@H](O)[C@H]5O[C@@H]5O[C@H](CO)[C@@H](O)[C@H](O)[C@H]5O)[C@@](C)(CO)[C@@H]4CC[C@@]2(C)[C@]1(C)C[C@H]3O,inactive: 0.999
10,CCc1nc2ccc(C(=O)NCCOc3ccc(OC)cc3)cn2c1N(CC)Cc1cccc(Br)c1,inactive: 1.03
11,COc1ccc([C@@H]([C@H](Cc2ccccc2)OC(C)=O)N2C[C@@H](OC(C)=O)[C@H]3C(=NO[C@@H]3c3ccccc3)[C@@H]2Cc2ccccc2)cc1,inactive: 1.03
12,Cc1noc(C)c1S(=O)(=O)N(C)C[C@H]1Oc2c(NC(=O)C3CC3)cccc2C(=O)N([C@H](C)CO)C[C@H]1C,inactive: 1.01
13,CC(C)=CCC[C@]1(C)[C@@H](CC=C(C)C)C[C@]2(CC=C(C)C)C(=O)C(CC=C(C)C)=C(O)[C@@]1(C(=O)C(C)C)C2=O,inactive: 1.01
14,C[C@@H]1CN([C@@H](C)CO)C(=O)Cc2cc(NS(=O)(=O)c3cn(C)cn3)ccc2O[C@H]1CN(C)CC1CCCCC1,inactive: 1.01
15,CC(=O)N(C)C[C@H]1Oc2cc(C#CCN(C)C)ccc2S(=O)(=O)N([C@H](C)CO)C[C@H]1C,inactive: 0.992
16,COc1ccc(S(=O)(=O)N(C)C[C@@H]2Oc3c(NS(=O)(=O)c4cccs4)cccc3C(=O)N([C@H](C)CO)C[C@@H]2C)cc1,inactive: 1.02
17,C[C@@H]1CCCCO[C@@H](CN(C)C(=O)Nc2ccccc2)[C@H](C)CN([C@@H](C)CO)C(=O)c2cc(NC(=O)Nc3cccc4ccccc34)ccc2O1,inactive: 1.07
18,O=C(C[C@@H]1CC[C@@H]2[C@H](COC[C@@H](O)CN2S(=O)(=O)c2ccc(Cl)cc2)O1)N[C@H]1CCN(Cc2ccccc2)C1,inactive: 0.976
19,CO[C@@H]1CN(C)C(=O)c2cc(NS(C)(=O)=O)ccc2OC[C@@H](C)N(C(=O)CN(C)C)C[C@@H]1C,inactive: 1.01
20,CC(C)N1C[C@@H](CO)CC1=O,inactive: 1.02
21,O=C(N/N=C/[C@@H](O)[C@@H](O)[C@H](O)[C@H](O)CO)c1ccccn1,inactive: 0.989
22,C[C@@H]1CN([C@H](C)CO)C(=O)c2cccc(NC(=O)c3ccc(-c4nccs4)cc3)c2O[C@@H]1CN(C)S(=O)(=O)c1ccc(Cl)cc1,inactive: 0.993
23,C[C@@H]1CC[C@@]2(OC1)O[C@H]1C[C@H]3[C@H]4C[C@@H](O)[C@H]5C[C@@H](O[C@@H]6O[C@H](CO)[C@H](O[C@@H]7O[C@H](CO)[C@@H](O)[C@H](O[C@@H]8OC[C@@H](O)[C@H](O)[C@H]8O)[C@H]7O[C@@H]7O[C@H](CO)[C@@H](O[C@@H]8O[C@H](CO)[C@@H](O)[C@H](O)[C@H]8O)[C@H](O)[C@H]7O)[C@H](O)[C@H]6O)[C@H](O)C[C@]5(C)[C@@H]4CC[C@]3(C)[C@H]1[C@@H]2C,inactive: 0.887
24,CN(C)CC(=O)N[C@@H]1CC[C@H](CCn2cc(CN(C)C)nn2)O[C@H]1CO,inactive: 1.01
25,C[C@@H]1CN([C@H](C)CO)C(=O)Cc2cc(NS(=O)(=O)c3cccs3)ccc2O[C@@H]1CN(C)Cc1ccc(Oc2ccccc2)cc1,inactive: 0.988
26,C[C@@H]1CN([C@H](C)CO)C(=O)Cc2cc(NC(=O)c3ccncc3)ccc2O[C@@H]1CN(C)C(=O)Nc1ccc2c(c1)OCO2,inactive: 1
